Our source for the enrichment score values is the supplement of paper PMC10369915.

Some of the results follow. No stated cut-off is given here; in the data, active = 3.2 or more and inactive = the rest. The signal is at background level for most entries.
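Further: displayed peptides selected on beads carrying the immobilized SH2 domain, with library peptides lacking any tyrosine serving as negative controls.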

One test deals with SHP2 C-SH2 domain E139D. Put plainly: enrichment score (SH2-bound / input frequency) (ratio); bacterial display of known human phosphotyrosine sites (pTyr-Var adds point mutants) read by sequencing; higher = stronger binding; tyrosines were phosphorylated by kinases first. The settings on record: peptide library: pTyr-Var.
With WFPSTYVEEDE [VAV3_Y842], the enrichment score was inactive: 1.37.
In the case of TTSQPYRRLCS [USH2A_Y534_C536R], the enrichment score was inactive: 0.442.
In the case of KDFTIYNPNLL [VANGL1_Y290], the enrichment score is inactive: 1.05.
Consider VYSSDYFSFVL [USP24_Y2138], for which the enrichment score is inactive: 0.98.
VKPENYRRQDI [VHL_Y175_L178Q]: the enrichment score is inactive: 0.668.
Take AALRLYHVSDS [VIL1_Y256_K254R]: the enrichment score is inactive: 1.06.
In the case of VFDMLYQLANL [USP24_Y1087], the enrichment score was active: 3.21.
On the same count and under the same terms, the value for SVIKEYQIRQV [USH2A_Y3623_G3618S] was inactive: 0.84.
Same read-out and setting: the value for KNRDVSSSDYF [USP24_Y2134_Y2134S] was inactive: 0.466.
With VKPENYRRLDV [VHL_Y175_I180V], the enrichment score was inactive: 0.613.
On to VKPENYRRPDI [VHL_Y175_L178P], for which the enrichment score was inactive: 0.674.
On the same count and under the same terms, the figure for IGMLIYFARKA [VCAM1_Y718_I716L] is inactive: 1.04; for NYCPGYNNFYN [USH2A_Y467_R464C] it is inactive: 1.07; for TPGPNYCPGYN [USH2A_Y463_R464C] it is inactive: 0.321.
Turning to KNNSIYVLANI [VNN1_Y134_V136L], the enrichment score was inactive: 1.71.
Turning to KNRDVSSSDFF [USP24_Y2134_Y2134S_YF], the enrichment score was inactive: 0.564.
Still for that read-out and setting: the figure for GRIHSYRGHLW [VHL_Y112_R107G] is active: 4.94.
In the case of TPGPNYRPGYN [USH2A_Y463], the enrichment score is inactive: 0.474.
HNELYYEEAEH [VANGL1_Y345]: the enrichment score was inactive: 0.515.

The target of another test is SHP2 C-SH2 domain wild-type. The description is as above. Particulars: peptide library: pTyr-Var.
As for WFPSTYVEEDE [VAV3_Y842], the enrichment score was inactive: 1.02.
In the case of TTSQPYRRLCS [USH2A_Y534_C536R], the enrichment score is inactive: 0.422.
Regarding KDFTIYNPNLL [VANGL1_Y290], the enrichment score is inactive: 0.885.
As for VYSSDYFSFVL [USP24_Y2138], the enrichment score is inactive: 0.822.
As for VKPENYRRQDI [VHL_Y175_L178Q], the enrichment score is inactive: 0.716.
With AALRLYHVSDS [VIL1_Y256_K254R], the enrichment score is inactive: 0.724.
Turning to VFDMLYQLANL [USP24_Y1087], the enrichment score is inactive: 2.55.
Same read-out and setting: the figure for SVIKEYQIRQV [USH2A_Y3623_G3618S] is inactive: 0.714; for KNRDVSSSDYF [USP24_Y2134_Y2134S] it is inactive: 0.437.
On to VKPENYRRLDV [VHL_Y175_I180V], for which the enrichment score is inactive: 0.578.
Take VKPENYRRPDI [VHL_Y175_L178P]: the enrichment score is inactive: 0.889.
As to IGMLIYFARKA [VCAM1_Y718_I716L], the enrichment score was inactive: 0.928.
Turning to NYCPGYNNFYN [USH2A_Y467_R464C], the enrichment score is inactive: 1.43.
The same measure, in the same setting: the figure for TPGPNYCPGYN [USH2A_Y463_R464C] is inactive: 0.451.
Consider KNNSIYVLANI [VNN1_Y134_V136L], for which the enrichment score is inactive: 1.61.
Still for that read-out and setting: the value for KNRDVSSSDFF [USP24_Y2134_Y2134S_YF] was inactive: 0.59.
Regarding GRIHSYRGHLW [VHL_Y112_R107G], the enrichment score was active: 3.6.
Regarding TPGPNYRPGYN [USH2A_Y463], the enrichment score was inactive: 0.565.
As to HNELYYEEAEH [VANGL1_Y345], the enrichment score is inactive: 0.616.

The target of another test is SHP2 N-SH2 domain L43F. The test is described as above. Particulars: peptide library: pTyr-Var.
For WFPSTYVEEDE [VAV3_Y842], the enrichment score was inactive: 1.11.
For the molecule TTSQPYRRLCS [USH2A_Y534_C536R], the enrichment score was inactive: 0.456.
Still for that read-out and setting: the figure for KDFTIYNPNLL [VANGL1_Y290] is inactive: 1.1; for VYSSDYFSFVL [USP24_Y2138] it is inactive: 1.04.
With VKPENYRRQDI [VHL_Y175_L178Q], the enrichment score is inactive: 0.765.
On to AALRLYHVSDS [VIL1_Y256_K254R], for which the enrichment score is inactive: 0.957.
In the case of VFDMLYQLANL [USP24_Y1087], the enrichment score was inactive: 2.83.
SVIKEYQIRQV [USH2A_Y3623_G3618S]: the enrichment score was inactive: 0.794.
Consider KNRDVSSSDYF [USP24_Y2134_Y2134S], for which the enrichment score is inactive: 0.485.
The same measure, in the same setting: the value for VKPENYRRLDV [VHL_Y175_I180V] was inactive: 0.548; that for VKPENYRRPDI [VHL_Y175_L178P] was inactive: 0.744.
IGMLIYFARKA [VCAM1_Y718_I716L]: the enrichment score is inactive: 0.792.
For the molecule NYCPGYNNFYN [USH2A_Y467_R464C], the enrichment score is inactive: 1.07.
Same read-out and setting: the figure for TPGPNYCPGYN [USH2A_Y463_R464C] is inactive: 1.
As for KNNSIYVLANI [VNN1_Y134_V136L], the enrichment score is inactive: 1.73.
On to KNRDVSSSDFF [USP24_Y2134_Y2134S_YF], for which the enrichment score is inactive: 0.688.
On to GRIHSYRGHLW [VHL_Y112_R107G], for which the enrichment score is active: 3.82.
Consider TPGPNYRPGYN [USH2A_Y463], for which the enrichment score was inactive: 0.552.
Consider HNELYYEEAEH [VANGL1_Y345], for which the enrichment score is inactive: 0.61.

The target in a further test is SHP2 N-SH2 domain T42A. Described as above. Particulars: peptide library: pTyr-Var.
With WFPSTYVEEDE [VAV3_Y842], the enrichment score is inactive: 0.764.
Consider TTSQPYRRLCS [USH2A_Y534_C536R], for which the enrichment score was inactive: 0.273.
KDFTIYNPNLL [VANGL1_Y290]: the enrichment score was inactive: 0.855.
For VYSSDYFSFVL [USP24_Y2138], the enrichment score was inactive: 0.7.
Consider VKPENYRRQDI [VHL_Y175_L178Q], for which the enrichment score was inactive: 0.825.
Take AALRLYHVSDS [VIL1_Y256_K254R]: the enrichment score was inactive: 0.804.
On the same count and under the same terms, the value for VFDMLYQLANL [USP24_Y1087] was inactive: 2.35.
The same measure, in the same setting: the value for SVIKEYQIRQV [USH2A_Y3623_G3618S] was inactive: 0.815; that for KNRDVSSSDYF [USP24_Y2134_Y2134S] was inactive: 0.511.
For the molecule VKPENYRRLDV [VHL_Y175_I180V], the enrichment score is inactive: 0.607.
For VKPENYRRPDI [VHL_Y175_L178P], the enrichment score is inactive: 0.649.
With IGMLIYFARKA [VCAM1_Y718_I716L], the enrichment score was inactive: 0.932.
Take NYCPGYNNFYN [USH2A_Y467_R464C]: the enrichment score was inactive: 1.15.
On to TPGPNYCPGYN [USH2A_Y463_R464C], for which the enrichment score was inactive: 0.614.
Turning to KNNSIYVLANI [VNN1_Y134_V136L], the enrichment score is inactive: 1.75.
Still for that read-out and setting: the figure for KNRDVSSSDFF [USP24_Y2134_Y2134S_YF] is inactive: 0.528; for GRIHSYRGHLW [VHL_Y112_R107G] it is active: 3.48.
Turning to TPGPNYRPGYN [USH2A_Y463], the enrichment score was inactive: 0.508.
On to HNELYYEEAEH [VANGL1_Y345], for which the enrichment score was inactive: 0.48.

A further test deals with SHP2 N-SH2 domain T52S. Described as above. The settings on record: peptide library: pTyr-Var.
With WFPSTYVEEDE [VAV3_Y842], the enrichment score is inactive: 1.53.
As for TTSQPYRRLCS [USH2A_Y534_C536R], the enrichment score is inactive: 0.501.
For the molecule KDFTIYNPNLL [VANGL1_Y290], the enrichment score is inactive: 1.06.
Consider VYSSDYFSFVL [USP24_Y2138], for which the enrichment score is inactive: 0.889.
The same measure, in the same setting: the figure for VKPENYRRQDI [VHL_Y175_L178Q] is inactive: 0.666; for AALRLYHVSDS [VIL1_Y256_K254R] it is inactive: 0.891.
For the molecule VFDMLYQLANL [USP24_Y1087], the enrichment score is inactive: 3.16.
As for SVIKEYQIRQV [USH2A_Y3623_G3618S], the enrichment score is inactive: 0.668.
As for KNRDVSSSDYF [USP24_Y2134_Y2134S], the enrichment score was inactive: 0.4.
On to VKPENYRRLDV [VHL_Y175_I180V], for which the enrichment score is inactive: 0.547.
As for VKPENYRRPDI [VHL_Y175_L178P], the enrichment score is inactive: 0.799.
Regarding IGMLIYFARKA [VCAM1_Y718_I716L], the enrichment score was inactive: 1.03.
On the same count and under the same terms, the value for NYCPGYNNFYN [USH2A_Y467_R464C] was inactive: 1.13; that for TPGPNYCPGYN [USH2A_Y463_R464C] was inactive: 0.536; that for KNNSIYVLANI [VNN1_Y134_V136L] was inactive: 1.6.
In the case of KNRDVSSSDFF [USP24_Y2134_Y2134S_YF], the enrichment score was inactive: 0.543.
As for GRIHSYRGHLW [VHL_Y112_R107G], the enrichment score was active: 4.33.
For TPGPNYRPGYN [USH2A_Y463], the enrichment score was inactive: 0.943.
Still for that read-out and setting: the value for HNELYYEEAEH [VANGL1_Y345] was inactive: 0.588.

A further test has as its target SHP2 N-SH2 domain wild-type. The description is as above. Particulars: peptide library: pTyr-Var.
With WFPSTYVEEDE [VAV3_Y842], the enrichment score is inactive: 1.13.
Consider TTSQPYRRLCS [USH2A_Y534_C536R], for which the enrichment score is inactive: 0.263.
As for KDFTIYNPNLL [VANGL1_Y290], the enrichment score is inactive: 1.15.
Consider VYSSDYFSFVL [USP24_Y2138], for which the enrichment score is inactive: 0.863.
Regarding VKPENYRRQDI [VHL_Y175_L178Q], the enrichment score is inactive: 0.697.
Still for that read-out and setting: the figure for AALRLYHVSDS [VIL1_Y256_K254R] is inactive: 0.939.
Regarding VFDMLYQLANL [USP24_Y1087], the enrichment score was inactive: 2.8.
Take SVIKEYQIRQV [USH2A_Y3623_G3618S]: the enrichment score is inactive: 0.912.
Still for that read-out and setting: the figure for KNRDVSSSDYF [USP24_Y2134_Y2134S] is inactive: 0.668; for VKPENYRRLDV [VHL_Y175_I180V] it is inactive: 0.669; for VKPENYRRPDI [VHL_Y175_L178P] it is inactive: 0.871.
Take IGMLIYFARKA [VCAM1_Y718_I716L]: the enrichment score is inactive: 0.661.
As to NYCPGYNNFYN [USH2A_Y467_R464C], the enrichment score is inactive: 1.26.
For TPGPNYCPGYN [USH2A_Y463_R464C], the enrichment score is inactive: 0.763.
Still for that read-out and setting: the value for KNNSIYVLANI [VNN1_Y134_V136L] was inactive: 1.65.
As for KNRDVSSSDFF [USP24_Y2134_Y2134S_YF], the enrichment score is inactive: 0.865.
GRIHSYRGHLW [VHL_Y112_R107G]: the enrichment score was active: 3.86.
As for TPGPNYRPGYN [USH2A_Y463], the enrichment score is inactive: 0.771.
In the case of HNELYYEEAEH [VANGL1_Y345], the enrichment score is inactive: 0.763.
